Residue numbers refer to the chain shown, from its start. This is one part of the list.

Data on 31 molecules can be found in paper PMC9911399, “Two distinct binding modes provide the RNA-binding protein RbFox with extraordinary sequence specificity”.

The labels stand for the following.
T1: RBFOX1 RRM RbFoxmut (Fox-RRM*) (Homo sapiens, UniProt Q9NWB1 109-208, R118D;E147R;N151S;E152T)
T1 sequence: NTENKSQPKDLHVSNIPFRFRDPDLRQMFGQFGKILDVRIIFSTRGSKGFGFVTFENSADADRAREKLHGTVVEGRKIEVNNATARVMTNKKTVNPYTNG

B1: UAUACUU (DNA:RNA)
RNA: GGGAGACCGGAAUUCAGAUUGUCCUAUACUUUUAAAUCCCGUCGUAGCCACCA
DNA 1: CAATCTGAATTCCGGTCTCCC
DNA 2: TGGTGGCTACGACGGGATT
B2: UAUGCGU (DNA:RNA)
RNA: B1 RNA with A28G, U30G
DNA 1: CAATCTGAATTCCGGTCTCCC
DNA 2: TGGTGGCTACGACGGGATT
B3: CACCUUG (DNA:RNA)
RNA: B1 RNA with U25C, U27C, A28C, C29U, U31G
DNA 1: CAATCTGAATTCCGGTCTCCC
DNA 2: TGGTGGCTACGACGGGATT
B4: UCUUAUA (DNA:RNA)
RNA: B1 RNA with A26C, A28U, C29A, U31A
DNA 1: CAATCTGAATTCCGGTCTCCC
DNA 2: TGGTGGCTACGACGGGATT
B5: ACUCUCU (DNA:RNA)
RNA: B1 RNA with U25A, A26C, A28C, C29U, U30C
DNA 1: CAATCTGAATTCCGGTCTCCC
DNA 2: TGGTGGCTACGACGGGATT
B6: GGUGAAA (DNA:RNA)
RNA: B1 RNA with U25G, A26G, A28G, C29A, U30A, U31A
DNA 1: CAATCTGAATTCCGGTCTCCC
DNA 2: TGGTGGCTACGACGGGATT
B7: CGAUAAG (DNA:RNA)
RNA: GGGAGACCGGAAUUCAGAUUGUCCCGAUAAGUUAAAUCCCGUCGUAGCCACCA
DNA 1: CAATCTGAATTCCGGTCTCCC
DNA 2: TGGTGGCTACGACGGGATT
B8: CGAUCGC (DNA:RNA)
RNA: B7 RNA with A29C, A30G, G31C
DNA 1: CAATCTGAATTCCGGTCTCCC
DNA 2: TGGTGGCTACGACGGGATT
B9: CCACGGG (DNA:RNA)
RNA: B7 RNA with G26C, U28C, A29G, A30G
DNA 1: CAATCTGAATTCCGGTCTCCC
DNA 2: TGGTGGCTACGACGGGATT
B10: AAGAAAA (DNA:RNA)
RNA: B7 RNA with C25A, G26A, A27G, U28A, G31A
DNA 1: CAATCTGAATTCCGGTCTCCC
DNA 2: TGGTGGCTACGACGGGATT
B11: AGUCGCU (DNA:RNA)
RNA: B1 RNA with U25A, A26G, A28C, C29G, U30C
DNA 1: CAATCTGAATTCCGGTCTCCC
DNA 2: TGGTGGCTACGACGGGATT
B12: CGCUCGG (DNA:RNA)
RNA: B7 RNA with A27C, A29C, A30G
DNA 1: CAATCTGAATTCCGGTCTCCC
DNA 2: TGGTGGCTACGACGGGATT
B13: CUGUCUC (DNA:RNA)
RNA: B7 RNA with G26U, A27G, A29C, A30U, G31C
DNA 1: CAATCTGAATTCCGGTCTCCC
DNA 2: TGGTGGCTACGACGGGATT
B14: UCCUCCC (DNA:RNA)
RNA: B1 RNA with A26C, U27C, A28U, U30C, U31C
DNA 1: CAATCTGAATTCCGGTCTCCC
DNA 2: TGGTGGCTACGACGGGATT
B15: GUGCUCA (DNA:RNA)
RNA: GGGAGACCGGAAUUCAGAUUGUCCGUGCUCAUUAAAUCCCGUCGUAGCCACCA
DNA 1: CAATCTGAATTCCGGTCTCCC
DNA 2: TGGTGGCTACGACGGGATT
B16: AAGGUCG (DNA:RNA)
RNA: B15 RNA with G25A, U26A, C28G, A31G
DNA 1: CAATCTGAATTCCGGTCTCCC
DNA 2: TGGTGGCTACGACGGGATT
B17: UAAGCGG (DNA:RNA)
RNA: B1 RNA with U27A, A28G, U30G, U31G
DNA 1: CAATCTGAATTCCGGTCTCCC
DNA 2: TGGTGGCTACGACGGGATT
B18: GGCUAAU (DNA:RNA)
RNA: B7 RNA with C25G, A27C, G31U
DNA 1: CAATCTGAATTCCGGTCTCCC
DNA 2: TGGTGGCTACGACGGGATT
B19: ACCACCA (DNA:RNA)
RNA: B15 RNA with G25A, U26C, G27C, C28A, U29C
DNA 1: CAATCTGAATTCCGGTCTCCC
DNA 2: TGGTGGCTACGACGGGATT
B20: GCUCGCU (DNA:RNA)
RNA: B15 RNA with U26C, G27U, U29G, A31U
DNA 1: CAATCTGAATTCCGGTCTCCC
DNA 2: TGGTGGCTACGACGGGATT
B21: UACUUUG (DNA:RNA)
RNA: B1 RNA with U27C, A28U, C29U, U31G
DNA 1: CAATCTGAATTCCGGTCTCCC
DNA 2: TGGTGGCTACGACGGGATT
B22: GCCCUAU (DNA:RNA)
RNA: B15 RNA with U26C, G27C, C30A, A31U
DNA 1: CAATCTGAATTCCGGTCTCCC
DNA 2: TGGTGGCTACGACGGGATT
B23: GUAGUUC (DNA:RNA)
RNA: B15 RNA with G27A, C28G, C30U, A31C
DNA 1: CAATCTGAATTCCGGTCTCCC
DNA 2: TGGTGGCTACGACGGGATT
B24: GGCGUUC (DNA:RNA)
RNA: B15 RNA with U26G, G27C, C28G, C30U, A31C
DNA 1: CAATCTGAATTCCGGTCTCCC
DNA 2: TGGTGGCTACGACGGGATT
B25: GGUGCCU (DNA:RNA)
RNA: B1 RNA with U25G, A26G, A28G, U30C
DNA 1: CAATCTGAATTCCGGTCTCCC
DNA 2: TGGTGGCTACGACGGGATT
B26: CCCUGCC (DNA:RNA)
RNA: B7 RNA with G26C, A27C, A29G, A30C, G31C
DNA 1: CAATCTGAATTCCGGTCTCCC
DNA 2: TGGTGGCTACGACGGGATT
B27: UUAACGU (DNA:RNA)
RNA: B1 RNA with A26U, U27A, U30G
DNA 1: CAATCTGAATTCCGGTCTCCC
DNA 2: TGGTGGCTACGACGGGATT
B28: CUCUUGC (DNA:RNA)
RNA: B7 RNA with G26U, A27C, A29U, A30G, G31C
DNA 1: CAATCTGAATTCCGGTCTCCC
DNA 2: TGGTGGCTACGACGGGATT
B29: UAAUAAG (DNA:RNA)
RNA: B7 RNA with C25U, G26A
DNA 1: CAATCTGAATTCCGGTCTCCC
DNA 2: TGGTGGCTACGACGGGATT
B30: GGAUUCG (DNA:RNA)
RNA: B7 RNA with C25G, A29U, A30C
DNA 1: CAATCTGAATTCCGGTCTCCC
DNA 2: TGGTGGCTACGACGGGATT
B31: CCUUAGC (DNA:RNA)
RNA: B7 RNA with G26C, A27U, A30G, G31C
DNA 1: CAATCTGAATTCCGGTCTCCC
DNA 2: TGGTGGCTACGACGGGATT

This assay deals with T1, RBFOX1 RRM RbFoxmut (Fox-RRM*). Put plainly: EMSA; HiTS-Eq, 1 nM pool, 10 min; buffer printed only for the single-RNA assays: 10 mM Tris pH 7.5, 150 mM NaCl, 3.4 mM EDTA, 0.001% NP-40, 30 C. The settings on record: tags: His6 N-terminal (pET28a); label: 5' 32P. Put shortly: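 A pool of RNA with 7 randomized nucleotides, 5′-radiolabelled and with DNA-annealed flanks, was equilibrated at 1 nM for 10 min in 50 µL with purified RbFox RRM, wild type or mutant, across increasing protein concentrations. Free RNA was separated by 8% native PAGE, excised, reverse-transcribed, barcoded by PCR and sequenced. Relative association constants were obtained from read-count changes of each RNA species versus the control reaction and normalised to the cognate motif.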
Background: In EMSA bound probe runs differently from free probe, usually more slowly.
As for B1, the binding signal is 0.0928 KA relative to UGCAUGU. The result for B2 reads 0.108 KA relative to UGCAUGU; that for B3, 0.123 KA relative to UGCAUGU. On to B4, for which the binding signal is 0.16 KA relative to UGCAUGU. The result for B5 reads 0.0575 KA relative to UGCAUGU; that for B6, 0.0696 KA relative to UGCAUGU. Take B7: the binding signal was 0.0989 KA relative to UGCAUGU. The result for B8 reads 0.0736 KA relative to UGCAUGU; that for B9, 0.0735 KA relative to UGCAUGU. B10: the binding signal is 0.106 KA relative to UGCAUGU. Consider B11, for which the binding signal was 0.0771 KA relative to UGCAUGU. As for B12, the figure is 0.0892 KA relative to UGCAUGU; as for B13, 0.0817 KA relative to UGCAUGU. The result for B14 reads 0.0615 KA relative to UGCAUGU.

Regarding B15, the binding signal is 0.0843 KA relative to UGCAUGU. The result for B16 reads 0.111 KA relative to UGCAUGU. For the molecule B17, the binding signal is 0.0897 KA relative to UGCAUGU. B18: the binding signal is 0.098 KA relative to UGCAUGU. As for B19, the binding signal is 0.125 KA relative to UGCAUGU. With B20, the binding signal was 0.0951 KA relative to UGCAUGU.

As to B21, the binding signal was 0.0734 KA relative to UGCAUGU.

On to B22, for which the binding signal is 0.0677 KA relative to UGCAUGU. As for B23, the figure is 0.102 KA relative to UGCAUGU.

For B24, the binding signal was 0.157 KA relative to UGCAUGU. On to B25, for which the binding signal is 0.0824 KA relative to UGCAUGU. Consider B26, for which the binding signal is 0.249 KA relative to UGCAUGU. The result for B27 reads 0.0781 KA relative to UGCAUGU; that for B28, 0.128 KA relative to UGCAUGU. On to B29, for which the binding signal is 0.0895 KA relative to UGCAUGU. Consider B30, for which the binding signal was 0.161 KA relative to UGCAUGU.

On to B31, for which the binding signal was 0.12 KA relative to UGCAUGU.
